The values that follow come from ChEMBL document CHEMBL4888484, “Replenishing the malaria drug discovery pipeline: Screening and hit evaluation of the MMV Hit Generation Library 1 (HGL1) against asexual blood stage Plasmodium falciparum ,using a nano luciferase reporter read-out” (2022).

Hit rate of the full screen: of about 4,800 compounds, about 420 (8.8%) showed an effect of 50% or more. Some of the results follow.

For orientation: % Inhibition means the drop in the measured response relative to a control, in per cent.

This assay has as its system Plasmodium falciparum. Description: Confirmatory screen in NF54 nanoGlo assay, in single point, at 2uM, 72h. The class given is functional, Erythrocyte. The settings on record: timepoint 72 hour.
Turning to `COc1ccc2c(c1)CCN2S(=O)(=O)c1ccc2c(c1)OCCO2`, the “% Inhibition” value is listed as -4%.
For `CCc1c2c(=O)n(-c3nc4ccccc4s3)[nH]c2cc(=O)n1CCCN1CCOCC1`, the “% Inhibition” value stood at 43%.
The same measure for `COc1ccc(C2=NC3=S(N2c2ccccc2)N(C(C)=O)C(C(Cl)(Cl)Cl)N3c2ccccc2)cc1` (stereo unspecified): 0%.
As for `CCC(CC)C(=O)Nc1cccc(O)c1`, the “% Inhibition” value came to 5%.
Consider `Nc1nc(-c2ccccc2)c2cc3c(nn12)C[C@H](c1ccc(F)cc1)CC3=O`, for which the “% Inhibition” value was determined as 1%.
The same measure for `Cc1onc(C(=O)NCc2cnn(C)c2C)c1COc1cccc(C(F)(F)F)c1`: -9%.
In the case of `COCc1c(C(=O)N2CCC[C@@H]2CCc2ncc(C)n2C(C)C)noc1C` it was -3%; in that of `CCNc1nc(C)cc(Nc2ccc(NS(=O)(=O)c3c(C)noc3C)cc2)n1`, 92%; in that of `CCOc1ccc2sc(NC(=O)Cn3cnc4nc(N5CCCCC5)sc4c3=O)nc2c1`, -5%.
On to `CC(C)(C)Nc1nc2nonc2nc1NC1CCCCC1`, for which the “% Inhibition” value is -1%.
The same measure for `Cn1nc(N)c2cc(C3OCCCO3)ccc21`: -10%; for `CC(C)c1cc(=O)[nH]c(-n2nc(C3CC3)cc2NC(=O)Cc2ccc(Cl)cc2)n1`: 69%.
Turning to `O=C(NCCCN1CCOCC1)c1ccc(-c2cnc(NC3CCCCC3)nc2)cc1`, the “% Inhibition” value was -8%.
As for `CCc1ccc(CN2CCN(Cc3cccc(Oc4ccccc4)c3)CC2)cc1`, the “% Inhibition” value came out at 2%.
On to `CCN1CCC(CCNC(=O)c2cc3c(s2)N(CC)CCCC3)CC1`, for which the “% Inhibition” value is on record as -7%.
For the molecule `CC(C)c1ccc([C@H](C(=O)Nc2ccc3c(c2)OCO3)N(Cc2ccccc2)C(=O)Cn2nnc3ccccc32)cc1`, the “% Inhibition” value is listed as -11%.
With `Cc1cc(Br)cc(N[C@H](c2cccnc2)c2ncc[nH]2)c1`, the “% Inhibition” value is 40%.
In the case of `COc1cc([C@@H]2C=C(c3ccc(Cl)cc3)Nc3ncnn32)ccc1OCc1ccc(Cl)cc1` it was 3%.
For `CC(=O)N(CCN1CCOCC1)[C@H]1CCN(S(=O)(=O)c2cccc(Cl)c2)C1`, the “% Inhibition” value was 1%.
On to `CN1c2cc(C(=O)N3CCN(c4ccccc4Cl)CC3)ccc2C(=O)N2CCCC[C@H]21`, for which the “% Inhibition” value is given as -7%.
Consider `CC1(C)C(=O)NCCN1C(=O)c1ccc2nccnc2c1`, for which the “% Inhibition” value was found to be 0%.
On to `Cc1nc([C@H]2CC(=O)N(c3ccccc3)C2)no1`, for which the “% Inhibition” value is -16%.
Regarding `CN1N=C(C(=O)NCc2ccccn2)CCC1=O`, the “% Inhibition” value was found to be 1%.
In the case of `Nc1c(-c2ccc(F)cc2)nsc1C(=O)NC1CCN(Cc2ccccc2)CC1` it was -4%; in that of `Cn1c(=O)c2c(-c3ccc(Cl)cc3)n(-c3cccc4cccc(N)c34)cc2n(C)c1=O`, 91%.
Take `Cc1c(CCO)c(=O)n(C)n1C(=O)c1ccc(Cl)cc1`: the “% Inhibition” value amounted to 4%.
On to `COc1cc(C(=O)Nc2ccc(Oc3cccc4[nH]ccc34)nc2)cc2c1OCCCO2`, for which the “% Inhibition” value came out at 7%.
For `COc1ccc2nc(O)c(C(=O)Nc3ccc4c(c3F)CCNC4)cc2c1`, the “% Inhibition” value is on record as 99%.
The same measure for `COc1cc(F)c(NCc2csc(C3CC3)n2)cc1OC`: -5%; for `COc1cccc(CNCCCN2CCOCC2)c1OCc1ccc(F)cc1Cl`: 2%.
Take `CCn1nccc1CN(CCc1ccc(OC)c(OC)c1)S(=O)(=O)c1cnn(CC)c1C`: the “% Inhibition” value is listed as -4%.
On to `O=C1CCN(C(=O)COc2ccc(-c3ccccc3)cc2Cl)CCN1`, for which the “% Inhibition” value was -13%.
As to `COc1nccnc1N(C(C)=O)S(=O)(=O)c1ccc(NC(C)=O)cc1`, the “% Inhibition” value was -13%.
Regarding `Cc1cc(Cl)c2c(c1)C1(NC(CCC(=O)O)[C@H]3C(=O)N(C4CCCCC4)C(=O)[C@H]31)C(=O)N2` (stereo partly specified), the “% Inhibition” value was -7%.
For `O=C(NCCc1cccnc1)OCC(F)(F)F`, the “% Inhibition” value was -6%.
As to `NC(=O)c1ccc(NC(=O)N2CCC[C@H](c3cc(F)ccc3F)C2)cc1F`, the “% Inhibition” value is listed as -10%.
In the case of `COCc1cc2nn(CC(=O)Nc3ccc(F)cc3)c(=O)n2c(-c2ccccc2)n1`, the “% Inhibition” value is recorded as -11%.
Turning to `CCc1cc(N2CC[C@H]3[C@H](CCC(=O)N3CCCCO)C2)nc(C)n1`, the “% Inhibition” value was -11%.
For `CC(C)(C)OC(=O)N1CCCC(C(O)C(F)(F)F)C1` (stereo unspecified), the “% Inhibition” value was 6%.
Turning to `COc1ccc(NC(=O)CCC(=O)NCc2ccco2)cc1`, the “% Inhibition” value was 6%.
Turning to `COc1ccc(-c2[nH]ncc2C(=O)NCC2CCCCC2)cc1OC`, the “% Inhibition” value is on record as 2%.
For `COc1ccc(N[C@@H](C)C(=O)Nc2nc(C)cs2)c(OC)c1`, the “% Inhibition” value is given as 2%.
With `CCn1nccc1C(=O)N1CC[C@H](CC(=O)N(C)Cc2ccccc2)C1`, the “% Inhibition” value was -8%.
The same measure for `CC(C)OC(=O)N(CCOC(=O)Nc1cccc(Cl)c1)CCOC(=O)Nc1cccc(Cl)c1`: -15%.
Regarding `Cc1ccccc1-c1cc2c(N3CCN(C4CCCCC4)CC3)nccn2n1`, the “% Inhibition” value is recorded as -4%.
For the molecule `Nc1ccc(Cl)c(NC2=NN(c3c(Cl)cc(Cl)cc3Cl)C(=O)C2)c1`, the “% Inhibition” value came to 0%.
As for `O=C1c2[nH]nc(-c3cccs3)c2[C@@H](c2cccc(O)c2)N1c1nccs1`, the “% Inhibition” value was -3%.
Take `Cc1ccc(NC(=O)CN2N=C(C(=O)Nc3ccccc3)CCC2=O)cc1`: the “% Inhibition” value is -18%.
On to `CCOCCN(C)Cc1n[nH]c(C)c1C(=O)OCC`, for which the “% Inhibition” value is -7%.
`CC[n+]1c(/C=C/N(C)c2ccccc2)oc2ccccc21`: the “% Inhibition” value was determined as 80%.
With `Nc1nc(-c2ccc(N3CCCC3)cc2)cs1`, the “% Inhibition” value was -5%.
On to `COC(=O)CN(CC(=O)Nc1ccc(C)c(C)c1)Cc1cnn(C)c1`, for which the “% Inhibition” value was -10%.
As to `Cc1ccc[n+](Cc2ccc3ccccc3n2)c1`, the “% Inhibition” value came out at 53%.
Regarding `CCOC(=O)c1cc(-c2ccccc2)nnc1Oc1ccccc1`, the “% Inhibition” value is recorded as 1%.
With `COc1ccc(C(=O)N(C(=O)c2ccc(OC)cc2)c2c3c(nc4ccccc24)CCCC3)cc1`, the “% Inhibition” value worked out at 72%.
For the molecule `Cc1nn(C(F)F)c(C)c1S(=O)(=O)Nc1ncn(Cc2ccccc2Cl)n1`, the “% Inhibition” value is given as -5%.
Regarding `CCCn1c(C(=O)N2CCOCC2)cc2sccc21`, the “% Inhibition” value was 2%.
With `COc1cc([C@H]2CC(=O)Nc3c2cnn3C)ccc1OCc1ccccc1`, the “% Inhibition” value is -10%.
As to `Cc1cc(C)cc(-c2nnc(NC(=O)N3CCC[C@@H]3CO)s2)c1`, the “% Inhibition” value was -8%.
The same measure for `CCCn1c(C)ccc(-c2noc(CCC(=O)NCc3cccnc3)n2)c1=O`: -6%; for `CCCCN1CCN(C(=O)CN2CCN(Cc3ccc(F)cc3Cl)C2=O)CC1`: -8%; for `CC(=O)N(C)CC(=O)Nc1ccccc1NCC1CCCCC1`: -1%.
The same measure for `O=C(Nc1ccc(OC(F)F)cc1)c1cc(C2CC2)nc2c1c(C1CC1)nn2-c1ccccc1`: -7%; for `O=C(Nc1cccc(OCCn2cncn2)c1)[C@@H]1CCCc2ccccc21`: -8%.
In the case of `O=C(Nc1cc(-c2onc3c2CCCC3)cc(C(F)(F)F)c1)c1cncc(Br)c1` it was 95%; in that of `CCc1ccc(C(=O)N2CCCN(c3nc(C4CCOCC4)nc4c3cnn4-c3ccccc3)CC2)cc1`, 29%.
In the case of `O=C(C[C@H]1CCN(C(=O)C2CCC2)C1)NCc1ccccc1`, the “% Inhibition” value was -1%.
The same measure for `CC(=O)Nc1cc(C)c(S(=O)(=O)O)cc1C`: 5%; for `CN1CCC2(CC1)Nc1ccccc1-c1nc(-c3ccco3)nn12`: 4%; for `C[C@H]1CN(C(=O)c2cc(Cl)cc(Br)c2F)CCS1(=O)=O`: 2%.
For `CCn1cc([C@H](CC(=O)N2CCN(Cc3ccc4c(c3)OCO4)CC2)c2cccc(OC)c2)c2ccccc21`, the “% Inhibition” value is given as 1%.
Consider `Cc1nc2n(Cc3ccc(Cl)cc3)c3ccccc3n2n1`, for which the “% Inhibition” value turned out to be 4%.
Regarding `O=C(c1cc(-c2ccccc2)n[nH]1)N1CCC(N2CCc3sccc3C2)CC1`, the “% Inhibition” value was 21%.
As to `c1ccc(N2CCN(CCN[C@H]3CCc4cc5c(cc43)CCC5)CC2)cc1`, the “% Inhibition” value was 8%.
In the case of `O=S(=O)(c1ccco1)N1CC[C@H](Oc2ccccc2)C1`, the “% Inhibition” value was determined as 2%.
Regarding `Cc1nn2c(C(F)F)cc(-c3ccc4c(c3)OCO4)nc2c1Cl`, the “% Inhibition” value is given as -5%.
For `CC(C)C1(C)CC(=O)N(C(C(=O)O)c2ccccc2)C1=O` (stereo unspecified), the “% Inhibition” value was -11%.
Consider `Cc1n[nH]c(C)c1NC(=O)CN1CC(C)OC(C)C1` (stereo unspecified), for which the “% Inhibition” value is recorded as -6%.
In the case of `O=C(Oc1cccc2cccnc12)c1ccc(-c2ccccc2)cc1`, the “% Inhibition” value is given as 2%.
In the case of `O=C(Nc1nnc(C2CC2)s1)[C@@H]1Cc2ccccc2O1` it was -3%; in that of `O=C(c1ccccc1COC1CCOCC1)N1CCC[C@H](c2nnc[nH]2)C1`, 2%; in that of `C=CCNC(=NC)NC1CCN(c2cc(OC)cc(OC)c2)CC1`, -2%.
On to `CC(C)N(CC(C)(C)O)C(=O)Nc1ccc(C(N)=O)c(Cl)c1`, for which the “% Inhibition” value is recorded as -1%.
In the case of `COc1ccc(CCNC(=O)c2nnc(Cc3c(F)cccc3Cl)o2)cc1OC` it was 13%.
In the case of `CC12CN(S(=O)(=O)c3ccc4c(c3)OCCO4)C3(C(=O)OCc4ccccc4)CC1CCC23C` (stereo unspecified) it was 59%; in that of `CC[C@H]1CN2C=NC(N3CCN(C(=O)Nc4cc(F)cc(F)c4)CC3)=CC2=N1`, 35%; in that of `C=CCNC(=O)c1cc(Br)cc(Br)c1OC`, 6%.
With `Cc1ccccc1S(=O)(=O)c1cc2cc(Br)cc(Br)c2nc1N`, the “% Inhibition” value is given as 0%.
In the case of `O=C(Nc1ccc(Cl)c(Cl)c1)Nc1ccc(Cl)cc1NC(=O)Nc1ccc(Cl)c(Cl)c1` it was 65%; in that of `Cc1ccccc1C(=O)Cc1ncc[nH]1`, 75%.
With `O=C1C2CC2C(=O)N1Cc1ccccc1` (stereo unspecified), the “% Inhibition” value came to 1%.
As to `CCCC1CCC(c2ccc(-c3noc(-c4ccc(O)c(F)c4)n3)cc2)CC1` (stereo unspecified), the “% Inhibition” value is -1%.
As for `CNCC(=O)Nc1ccccc1C(F)(F)F`, the “% Inhibition” value was -8%.
As to `O=C(CCc1nc2cccnc2[nH]1)NCCN1CCOCC1`, the “% Inhibition” value is 3%.
In the case of `Cc1ccc(NC(=O)Nc2c(C3=CCCCC3)c(C)nn2C)cc1C`, the “% Inhibition” value is reported as -12%.
Take `O=C(c1cccs1)N1CCN(C2CCCCCC2)CC1`: the “% Inhibition” value is 1%.
In the case of `CC1CCN(C(=O)NCC2CCC(F)(F)CC2)CC1n1ccnc1` (stereo unspecified), the “% Inhibition” value amounted to 3%.
In the case of `O=C1NC(=O)C2(CCN(C(=O)c3cc(-c4ccco4)[nH]n3)CC2)N1` it was -12%.
On to `COc1ccc(Oc2c(CN(CC3CC3)C(=O)c3ccccc3)c(-c3ccccc3)nn2C)cc1`, for which the “% Inhibition” value came to 2%.
In the case of `Cn1cc(C(=O)NCC2CCN(S(=O)(=O)c3cccs3)CC2)cn1` it was -2%; in that of `COc1ccc(C(=O)N2CCC3(CC2)C[C@@H](O)CCO3)cc1`, 3%.
